Laboratory results: the supplement of paper PMC8728848
This is one part of the list.

How the values were obtained:
Experiment in all cases: glycan array binding signal (z-score within array); higher = stronger binding
Details in all cases: glycan notation: IUPAC condensed, linker removed
[1] = target: Neu5Ac(a2-3)Gal(b1-3)GlcNAc(b1-3)Gal(b1-3)GlcNAc
Method in brief: (§1)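 Glycan array data were curated from 3228 arrays in the Consortium for Functional Glycomics database and kept only where the protein sequence was available. Glycan names were converted to IUPAC-condensed notation, and columns mapping to the same glycan were averaged. The binding signal is a within-array Z-score, averaged across arrays of the same protein sequence at different concentrations or buffers and across linkers. Negative Z-scores can be read as non-binding.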

[2] = target: Neu5Ac(a2-3)Gal(b1-3)GlcNAc(b1-3)Gal(b1-4)GlcNAc
Method in brief: as §1

[3] = target: Neu5Ac(a2-3)Gal(b1-3)GlcNAc(b1-3)GalNAc
Method in brief: as §1

[4] = target: Neu5Ac(a2-3)Gal(b1-3)GlcNAc(b1-4)Gal(b1-4)Glc
Method in brief: as §1

[5] = target: Neu5Ac(a2-3)Gal(b1-3)GlcNAc(b1-6)GalNAc
Method in brief: as §1

[6] = target: Neu5Ac(a2-3)Gal(b1-3)GlcNAc6S
Method in brief: as §1

[7] = target: Neu5Ac(a2-3)Gal(b1-3)[Fuc(a1-4)]GlcNAc
Method in brief: as §1

[8] = target: Neu5Ac(a2-3)Gal(b1-3)[Fuc(a1-4)]GlcNAc(b1-3)Gal(b1-3)[Fuc(a1-4)]GlcNAc
Method in brief: as §1

[9] = target: Neu5Ac(a2-3)Gal(b1-3)[Fuc(a1-4)]GlcNAc(b1-3)Gal(b1-4)[Fuc(a1-3)]GlcNAc
Method in brief: as §1

[10] = target: Neu5Ac(a2-3)Gal(b1-3)[GlcNAc(b1-6)]GalNAc
Method in brief: as §1

[11] = target: Neu5Ac(a2-3)Gal(b1-3)[Neu5Ac(a2-3)Gal(b1-4)]GlcNAc
Method in brief: as §1

[12] = target: Neu5Ac(a2-3)Gal(b1-3)[Neu5Ac(a2-6)]GalNAc
Method in brief: as §1

[13] = target: Neu5Ac(a2-3)Gal(b1-3)[Neu5Ac(a2-6)]GlcNAc(b1-3)[Fuc(a1-3)[Gal(b1-4)]GlcNAc(b1-6)]Gal(b1-4)Glc
Method in brief: as §1

[14] = target: Neu5Ac(a2-3)Gal(b1-3)]Neu5Ac(a2-3)Gal(b1-4)]GlcNAc
Method in brief: as §1

Neu5Ac(a2-3)Gal(b1-4)Glc = target: Neu5Ac(a2-3)Gal(b1-4)Glc
Method in brief: as §1

[15] = target: Neu5Ac(a2-3)Gal(b1-4)GlcNAc
Method in brief: as §1

[16] = target: Neu5Ac(a2-3)Gal(b1-4)GlcNAc(b1-2)Man
Method in brief: as §1

[17] = target: Neu5Ac(a2-3)Gal(b1-4)GlcNAc(b1-2)Man(a1-3)[GlcNAc(b1-2)Man(b1-4)GlcNAc(b1-2)Man(a1-6)]Man(b1-4)GlcNAc(b1-4)GlcNAc
Method in brief: as §1

[18] = target: Neu5Ac(a2-3)Gal(b1-4)GlcNAc(b1-2)Man(a1-3)[GlcNAc(b1-4)][Neu5Ac(a2-3)Gal(b1-4)GlcNAc(b1-2)Man(a1-6)]Man(b1-4)GlcNAc(b1-4)GlcNAc
Method in brief: as §1

[19] = target: Neu5Ac(a2-3)Gal(b1-4)GlcNAc(b1-2)Man(a1-3)[Neu5Ac(a2-3)Gal(b1-4)GlcNAc(b1-2)Man(a1-6)]Man(b1-4)GlcNAc(b1-4)GlcNAc
Method in brief: as §1

[20] = target: Neu5Ac(a2-3)Gal(b1-4)GlcNAc(b1-2)Man(a1-3)[Neu5Ac(a2-3)Gal(b1-4)GlcNAc(b1-2)Man(a1-6)]Man(b1-4)GlcNAc(b1-4)[Fuc(a1-6)]GlcNAc
Method in brief: as §1

[21] = target: Neu5Ac(a2-3)Gal(b1-4)GlcNAc(b1-2)Man(a1-3)[Neu5Ac(a2-6)Gal(b1-4)GlcNAc(b1-2)Man(a1-6)]Man(b1-4)GlcNAc(b1-4)GlcNAc
Method in brief: as §1

[22] = target: Neu5Ac(a2-3)Gal(b1-4)GlcNAc(b1-2)[Neu5Ac(a2-3)Gal(b1-4)GlcNAc(b1-4)]Man(a1-3)[GlcNAc(b1-4)][Neu5Ac(a2-3)Gal(b1-4)GlcNAc(b1-2)[Neu5Ac(a2-3)Gal(b1-4)GlcNAc(b1-6)]Man(a1-6)]Man(b1-4)GlcNAc(b1-4)GlcNAc
Method in brief: as §1

[23] = target: Neu5Ac(a2-3)Gal(b1-4)GlcNAc(b1-2)[Neu5Ac(a2-3)Gal(b1-4)GlcNAc(b1-4)]Man(a1-3)[GlcNAc(b1-4)][Neu5Ac(a2-3)Gal(b1-4)GlcNAc(b1-4)Man(a1-6)]Man(b1-4)GlcNAc(b1-4)GlcNAc
Method in brief: as §1

[24] = target: Neu5Ac(a2-3)Gal(b1-4)GlcNAc(b1-2)[Neu5Ac(a2-3)Gal(b1-4)GlcNAc(b1-6)]Man(a1-6)[Neu5Ac(a2-3)Gal(b1-4)GlcNAc(b1-2)Man(a1-3)][GlcNAc(b1-4)]Man(b1-4)GlcNAc(b1-4)GlcNAc
Method in brief: as §1

[25] = target: Neu5Ac(a2-3)Gal(b1-4)GlcNAc(b1-3)Gal
Method in brief: as §1

[26] = target: Neu5Ac(a2-3)Gal(b1-4)GlcNAc(b1-3)Gal(b1-3)GlcNAc
Method in brief: as §1

[27] = target: Neu5Ac(a2-3)Gal(b1-4)GlcNAc(b1-3)Gal(b1-4)GlcNAc
Method in brief: as §1

[28] = target: Neu5Ac(a2-3)Gal(b1-4)GlcNAc(b1-3)Gal(b1-4)GlcNAc(b1-2)Man(a1-3)[Neu5Ac(a2-3)Gal(b1-4)GlcNAc(b1-3)Gal(b1-4)GlcNAc(b1-2)Man(a1-6)]Man(b1-4)GlcNAc(b1-4)GlcNAc
Method in brief: as §1

[29] = target: Neu5Ac(a2-3)Gal(b1-4)GlcNAc(b1-3)Gal(b1-4)GlcNAc(b1-3)Gal(b1-4)GlcNAc
Method in brief: as §1

[30] = target: Neu5Ac(a2-3)Gal(b1-4)GlcNAc(b1-3)Gal(b1-4)GlcNAc(b1-3)Gal(b1-4)GlcNAc(b1-2)Man(a1-3)[Neu5Ac(a2-3)Gal(b1-4)GlcNAc(b1-3)Gal(b1-4)GlcNAc(b1-3)Gal(b1-4)GlcNAc(b1-2)Man(a1-6)]GalNAc
Method in brief: as §1

[31] = target: Neu5Ac(a2-3)Gal(b1-4)GlcNAc(b1-3)Gal(b1-4)GlcNAc(b1-3)GalNAc
Method in brief: as §1

[32] = target: Neu5Ac(a2-3)Gal(b1-4)GlcNAc(b1-3)Gal(b1-4)GlcNAc(b1-3)[Neu5Ac(a2-3)Gal(b1-4)GlcNAc(b1-3)Gal(b1-4)GlcNAc(b1-6)]GalNAc
Method in brief: as §1

[33] = target: Neu5Ac(a2-3)Gal(b1-4)GlcNAc(b1-3)Gal(b1-4)GlcNAc(b1-6)[Gal(b1-3)]GalNAc
Method in brief: as §1

[34] = target: Neu5Ac(a2-3)Gal(b1-4)GlcNAc(b1-3)Gal(b1-4)[Fuc(a1-3)]GlcNAc
Method in brief: as §1

[35] = target: Neu5Ac(a2-3)Gal(b1-4)GlcNAc(b1-3)GalNAc
Method in brief: as §1

[36] = target: Neu5Ac(a2-3)Gal(b1-4)GlcNAc(b1-3)[Neu5Ac(a2-3)Gal(b1-4)GlcNAc(b1-6)]GalNAc
Method in brief: as §1

B1: MGL6A (Homo sapiens) (protein)
chain: MTRTYENFQYLENKVKVQGFKNGPLPLQSLLQRLCSGPCHLLLSLGLGLLLLVIICVVGFQNSKFQRDLVTLRTDFSNFTSNTVAEIQALTSQGSSLEETIASLKAEVEGFKQERQAVHSEMLLRVQQLVQDLKKLTCQVATLNNNGEEASTEGTCCPVNWVEHQDSCYWFSHSGMSWAEAEKYCQLKNAHLVVINSREEQNFVQKYLGSAYTWMGLSDPEGAWKWVDGTDYATGFQNWKPGQPDDWQGHGLGGGEDCAHFHPDGRWNDDVCQRPYHWVCEAGLGQTSQESH
glycan array binding signal (z-score) [1]: -0.29 | glycan array binding signal (z-score) [2]: -0.262 | glycan array binding signal (z-score) [3]: -0.273 | glycan array binding signal (z-score) [4]: -0.286 | glycan array binding signal (z-score) [5]: 3.45 | glycan array binding signal (z-score) [6]: -0.25 | glycan array binding signal (z-score) [7]: -0.286 | glycan array binding signal (z-score) [8]: -0.204 | glycan array binding signal (z-score) [9]: -0.37 | glycan array binding signal (z-score) [10]: -1.57 | glycan array binding signal (z-score) [11]: -0.404 | glycan array binding signal (z-score) [12]: -0.28 | glycan array binding signal (z-score) [13]: -0.237 | glycan array binding signal (z-score) [14]: -0.152 | glycan array binding signal (z-score) (Neu5Ac(a2-3)Gal(b1-4)Glc): -0.45 | glycan array binding signal (z-score) [15]: -0.278 | glycan array binding signal (z-score) [16]: -0.196 | glycan array binding signal (z-score) [17]: -0.467 | glycan array binding signal (z-score) [18]: -0.26 | glycan array binding signal (z-score) [19]: -0.206 | glycan array binding signal (z-score) [20]: -0.229 | glycan array binding signal (z-score) [21]: -0.248 | glycan array binding signal (z-score) [22]: -0.278 | glycan array binding signal (z-score) [23]: -0.268 | glycan array binding signal (z-score) [24]: -0.272 | glycan array binding signal (z-score) [25]: -0.71 | glycan array binding signal (z-score) [26]: -0.277 | glycan array binding signal (z-score) [27]: -0.328 | glycan array binding signal (z-score) [28]: -1.08 | glycan array binding signal (z-score) [29]: -0.343 | glycan array binding signal (z-score) [30]: -0.191 | glycan array binding signal (z-score) [31]: -0.254 | glycan array binding signal (z-score) [32]: -0.287 | glycan array binding signal (z-score) [33]: -0.286 | glycan array binding signal (z-score) [34]: -0.31 | glycan array binding signal (z-score) [35]: -0.263 | glycan array binding signal (z-score) [36]: -0.447
